{
  "source": "the supplement of paper PMC11417369",
  "note": "± gives the standard deviation of the averaged measurements. Some of the results follow.",
  "data": [
    {"tested_on": "PfAP2-EXP AP2 domain (GST-tagged)", "test": "gcPBM binding intensity (ln(normalized median fluorescence intensity)); higher = stronger DNA binding", "outline": "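GST-tagged P. falciparum DNA-binding domains produced in E. coli were incubated for 1 h on an Agilent 4 × 180k array of primer-extended double-stranded 36-bp intergenic genomic probes with negative controls. Binding intensity is the highest Masliner-normalised natural-log median intensity across replicate spots of either probe orientation, with bound protein detected by Alexa488 anti-GST antibody at 488 nm.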", "values": [
      {"sequence": "GCATATGATGAGCATATAATCATAAGAAAAAAAAAA [CACACA_negctrl_site701]", "gcPBM binding intensity (ln)": "8.35 ± 0.57"},
      {"sequence": "TATGTAATAATAAACGGTACACTATATTGTATGAAA [XGTACX_site4648]", "gcPBM binding intensity (ln)": "8.71 ± 0.36"},
      {"sequence": "AATAAATAGTAGTAGGTGCTACTATATTATATATAT [GTGCAC_site9452]", "gcPBM binding intensity (ln)": "8.63 ± 0.16"},
      {"sequence": "ATTATGAATTTTAATTGTACATTATTATAGAATGTA [XGTACX_site619]", "gcPBM binding intensity (ln)": "8.36 ± 0.38"},
      {"sequence": "AATAATTCTTAAAGGTGTACAATATGTATATAAGAA [XGTACX_site595]", "gcPBM binding intensity (ln)": "8.9 ± 0.33"},
      {"sequence": "AGTTATTTTTATATTTCACACACATATACTTTTACA [CACACA_site9357]", "gcPBM binding intensity (ln)": "8.88 ± 0.4"},
      {"sequence": "AAATTTTTTATTAGTAGTACGCATAAATATATGTAT [XGTACX_site1934]", "gcPBM binding intensity (ln)": "8.6 ± 0.37"},
      {"sequence": "AAAAATTCTTCCCAAGCATGCGCGCGTAAAATATTT [TGCATGCA_site77]", "gcPBM binding intensity (ln)": "9.4 ± 0.071"},
      {"sequence": "AAAAAAATAAGACACACACACAAAAAAATAAAAATA [CACACA_site6357]", "gcPBM binding intensity (ln)": "8.65 ± 0.57"},
      {"sequence": "AAAAAAAAAAGAAAAGGTACACAGAATATATATATA [XGTACX_site6914]", "gcPBM binding intensity (ln)": "9.84 ± 0.11"},
      {"sequence": "CAGTAGTTTTTATGGGTGCAAAACATATATATAACA", "gcPBM binding intensity (ln)": "9.17 ± 0.042"},
      {"sequence": "ATATATATATCAAAATGTACAAAAATAGAATTTAAA [XGTACX_site8292]", "gcPBM binding intensity (ln)": "9 ± 0.23"},
      {"sequence": "ATCTTTTTACTTAATACACACACACCCAAAAAAAAA [CACACA_site8221]", "gcPBM binding intensity (ln)": "8.84 ± 0.45"},
      {"sequence": "AAACGGCTATTAAAATGTACATGTAAATATATTAAA [XGTACX_site918]", "gcPBM binding intensity (ln)": "8.84 ± 0.46"},
      {"sequence": "AATACATATGGGTGTACACATTATATATATATATAT [CACACA_site4601]", "gcPBM binding intensity (ln)": "10.1 ± 0.24"},
      {"sequence": "CCTTTCCTAGCACATGCACACAAAAAAAAAAAAAAA [CACACA_site8396]", "gcPBM binding intensity (ln)": "8.57 ± 0.071"},
      {"sequence": "TACACCCACCAACACACACACACACTAATAAAAAAA [CACACA_site8060]", "gcPBM binding intensity (ln)": "8.57 ± 0.43"},
      {"sequence": "AAAATTAAAATATCACGTACGAAGAAAAAATTAAGA [XGTACX_site6437]", "gcPBM binding intensity (ln)": "8.85 ± 0.47"},
      {"sequence": "GAGGGTATAATAAAAGCACACACAAAGATATAAATA [CACACA_site9087]", "gcPBM binding intensity (ln)": "8.96 ± 0.49"},
      {"sequence": "CATGAATATTTATACATGCACACTAAAATAAAGAAT [CACACA_site2412]", "gcPBM binding intensity (ln)": "9.06 ± 0.16"},
      {"sequence": "GAAAATATTACATACACGCACACATTAATATATTTA [CACACA_site2604]", "gcPBM binding intensity (ln)": "8.65 ± 0.33"},
      {"sequence": "AAAAAATGCGACATGTGTACACATATATATATATAT [XGTACX_site1679]", "gcPBM binding intensity (ln)": "10.4 ± 0.11"},
      {"sequence": "TATATATATATATACACACACACACCCCAAAGCGTA [CACACA_site64]", "gcPBM binding intensity (ln)": "10.4 ± 0.15"},
      {"sequence": "ACATTTTGTAAAGAATGTACATATATATATATATTC [XGTACX_site8004]", "gcPBM binding intensity (ln)": "8.54 ± 0.33"},
      {"sequence": "CACTAATAGTGGATTACACACATATATCTGTATTTA [CACACA_site5403]", "gcPBM binding intensity (ln)": "8.38 ± 0.35"},
      {"sequence": "TGATTAATAATTTTCTTCATACATTAAACATCTTTT [TGCATGCA_negctrl_site342]", "gcPBM binding intensity (ln)": "8.39 ± 0.41"},
      {"sequence": "TTTTTTTTTTCATTAACACACATAAATATATATATA [CACACA_site5759]", "gcPBM binding intensity (ln)": "9.41 ± 0.042"},
      {"sequence": "GAGAAAAATAAATACACACACATAAATAAATACATA [CACACA_site5102]", "gcPBM binding intensity (ln)": "8.75 ± 0.42"},
      {"sequence": "TATGTATATTTTAATTGTACGTGTATGGTTGTAAAT [XGTACX_site8738]", "gcPBM binding intensity (ln)": "8.79 ± 0.38"},
      {"sequence": "TTAATGTTATATGTGTGTACATATAAGTTTAGTAAA [XGTACX_site4651]", "gcPBM binding intensity (ln)": "8.49 ± 0.14"},
      {"sequence": "TATTTTAATGAATTCACACATATAATTTATTTTATA [CACACA_site4538]", "gcPBM binding intensity (ln)": "8.3 ± 0.45"},
      {"sequence": "ATATTTAAAAAATGATGTACAAAAATGTAGTCACAC [XGTACX_site6208]", "gcPBM binding intensity (ln)": "8.57 ± 0.28"},
      {"sequence": "GAAATTAAATGACATACACACTATATTATAGATTTT [CACACA_site7468]", "gcPBM binding intensity (ln)": "8.35 ± 0.47"},
      {"sequence": "TTTTTTTTTTTTTTCTGTACAAATTAAATCTACATA [XGTACX_site8285]", "gcPBM binding intensity (ln)": "8.36 ± 0.8"},
      {"sequence": "GACATAAAATTCAAAGTGCATAAATAAAATAAACCC", "gcPBM binding intensity (ln)": "9.37 ± 0.47"},
      {"sequence": "TTTAATTTGATAGACACATGCACACGTGCAATACTT [TGCATGCA_site777]", "gcPBM binding intensity (ln)": "8.78 ± 0.085"},
      {"sequence": "ATATATATATATAAATGTACAGATATATTTTTTATT [XGTACX_site5445]", "gcPBM binding intensity (ln)": "10.21 ± 0.078"},
      {"sequence": "TACTAAAAAATATAAACACACATATATTTTACATAT [CACACA_site2042]", "gcPBM binding intensity (ln)": "8.22 ± 0.45"},
      {"sequence": "AATATATATTAATAAAGTACAGGAAATATTTTTACC [XGTACX_site7052]", "gcPBM binding intensity (ln)": "8.91 ± 0.36"},
      {"sequence": "AAAATACATAGACACACACACACACGGATATAAATA [CACACA_site7643]", "gcPBM binding intensity (ln)": "8.83 ± 0.58"},
      {"sequence": "ATATAAAACTAATTTCTTTTTCTCCTTTTATTTTGT [CACACA_negctrl_site1251]", "gcPBM binding intensity (ln)": "8.41 ± 0.4"},
      {"sequence": "ATAGTATCTGGTAGCTGTACGAGTCGTAGAGTGTAA [XGTACX_site4936]", "gcPBM binding intensity (ln)": "8.97 ± 0.49"},
      {"sequence": "TTTGTAAGAAATAAATGTACAAAAATTAATTTTTAT [XGTACX_site8983]", "gcPBM binding intensity (ln)": "8.45 ± 0.45"},
      {"sequence": "CTAATTAATGGGTACATACACACATATATACATACA [CACACA_site743]", "gcPBM binding intensity (ln)": "8.47 ± 0.29"},
      {"sequence": "ATATTAAAATTAAACGCATGCATATATTATAAAAGA [TGCATGCA_site231]", "gcPBM binding intensity (ln)": "9.51 ± 0.31"},
      {"sequence": "TTTTTATCAAATAAATGTACACATATTAAATGAAAT [XGTACX_site555]", "gcPBM binding intensity (ln)": "8.62 ± 0.19"},
      {"sequence": "TTCTGTATAACACAAATTTTTTTTTATTCACTCTGT [TGCATGCA_negctrl_site410]", "gcPBM binding intensity (ln)": "8.46 ± 0.35"},
      {"sequence": "AACACTTCATACACGTGTACAAATATAATATAGACA [XGTACX_site5671]", "gcPBM binding intensity (ln)": "8.84 ± 0.46"},
      {"sequence": "AAAATATTCACGTGTACATATATATATATATATTAT [TGCATGCA_negctrl_site192]", "gcPBM binding intensity (ln)": "8.97 ± 0.42"},
      {"sequence": "GGAAATAATATTATTACACACCAAAATGTATAAAAA [CACACA_site4036]", "gcPBM binding intensity (ln)": "8.45 ± 0.27"},
      {"sequence": "AAAAAAAAAAAAAACACACACACACGCATACAAAAT [CACACA_site6794]", "gcPBM binding intensity (ln)": "8.85 ± 0.55"},
      {"sequence": "ATTAATTATATAATATGTACATATTACAAATATATA [XGTACX_site1478]", "gcPBM binding intensity (ln)": "8.53 ± 0.33"},
      {"sequence": "ATATTTTTCTTAAGTACACACTAAATAGAAACTAAA [CACACA_site4191]", "gcPBM binding intensity (ln)": "8.48 ± 0.3"},
      {"sequence": "TTATATCTTATAAAATGTACATAAAATATATAATAT [XGTACX_site7647]", "gcPBM binding intensity (ln)": "8.52 ± 0.26"},
      {"sequence": "AATAATATAACAGAACAAAACTAAATATACACATAT [TGCATGCA_negctrl_site31]", "gcPBM binding intensity (ln)": "8.97 ± 0.5"},
      {"sequence": "TATTTCATAATAAATTGTACGCGTAGAAAACCATGA [XGTACX_site7506]", "gcPBM binding intensity (ln)": "9.29 ± 0.59"},
      {"sequence": "ATAATTACATAGATTGGTACACATTTTTGATTGTAT [XGTACX_site3802]", "gcPBM binding intensity (ln)": "8.54 ± 0.31"}
    ]}
  ]
}
